Laboratory results published in the supplement of paper PMC12217912.
The other results are listed elsewhere or left out. The full chains were built here from the parent and the listed change. Inactive controls read about 0.05.

B1: TEV protease; numbered along this chain (parent)
chain: MGESLFKGPRDYNPISSSICHLTNESDGHTTSLYGIGFGPFIITNKHLFRRNNGTLVVQSLHGVFKVKDTTTLQQHLVDGRDMIIIRMPKDFPPFPQKLKFREPQREERICLVTTNFQTKSMSSMVSDTSCTFPSGDGIFWKHWIQTKDGQCGSPLVSTRDGFIVGIHSASNFTNTNNYFTSVPKNFMELLTNQEAQQWVSGWRLNADSVLWGGHKVFMVKPEEPFQPVKEATQL

Variants of: B1
Assay: raw area under fraction-flipped curve 0-4 h after induction (AUC4h, not background-subtracted), DNA-recorder readout of cleavage of the substrate (dimensionless); higher = more cleavage of the substrate by the protease variant
Conditions: temperature: 34 °C; time window: 0-4 h after rhamnose induction
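Note: Bxb1 expression induced with 0.2% (w/v) L-rhamnose at OD600 near 0.5, cultures sampled hourly, flipped fraction per protease–substrate barcode pair counted by paired-end Illumina sequencing.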

Variant | area with substrate ENCYFQS | area with substrate ENDYFQS | area with substrate ENEYFQS | area with substrate ENNYFQS | area with substrate ENQYFQS | area with substrate ENFYFQS | area with substrate ENGYFQS | area with substrate ENHYFQS | area with substrate ENIYFQS | area with substrate ENSYFQS | area with substrate ENTYFQS | area with substrate ENVYFQS | area with substrate ENYYFQS | area with substrate ENMYFQS | area with substrate ENRYFQS | area with substrate ENKYFQS
MGESLFKGPRDYNPISSSICHLTNESDGHTTSLYGIGDGPFIITNKHLFRRNNGTLVVQSLHGVFKVKDTTTLQQHLVDGRDMIIIRMPKDFPPFPQKLKFREPQREERICLVTTNFQTKSMSSMVSDTSCTFPSGDGIFWKHWIQTKDGQCGSPLVSTRDGFIVGIHSASNFTNTNNYFTSVPKNFMELLTNQEAQQWVSGWRLNADSVLWGGHKVFMVKPEEPFQPVKEATQL [F38D] | 0.0517 | 0.0146 | 0.0387 | 0.0439 | 0.0698 | – | – | – | – | – | – | – | – | – | – | –
MGESLFKGPRDYNPISSSICHLTNESDGHTTSLYGIGFGPFPITNKHLFRRNNGTLVVQSLHGVFKVKDTTTLQQHLVDGRDMIIIRMPKDFPPFPQKLKFREPQREERICLVTTNFQTKSMSSMVSDTSCTFPSGDGIFWKHWIQTKDGQCGSPLVSTRDGFIVGIHSASNFTNTNNYFTSVPKNFMELLTNQEAQQWVSGWRLNADSVLWGGHKVFMVKPEEPFQPVKEATQL [I42P] | 0.0514 | 0.0276 | 0.047 | – | 0.0479 | 0.0538 | 0.0412 | 0.053 | 0.0738 | 0.0435 | 0.0434 | 0.0368 | 0.0489 | – | – | –
MGESLFKGPRDYNPISSSICHLTNESDGHTTSLYGIGFGPFIITNKHLFRGNNGTLVVQSLHGVFKVKDTTTLQQHLVDGRDMIIIRMPKDFPPFPQKLKFREPQREERICLVTTNFQTKSMSSMVSDTSCTFPSGDGIFWKHWIQTKDGQCGSPLVSTRDGFIVGIHSASNFTNTNNYFTSVPKNFMELLTNQEAQQWVSGWRLNADSVLWGGHKVFMVKPEEPFQPVKEATQL [R51G] | 0.0607 | 0.059 | 0.0584 | 0.019 | 0.0624 | – | 0.0713 | – | – | – | – | 0.0776 | – | 0.103 | – | –
MGESLFKGPRDYNPISSSICHLTNESDGHTTSLYGIGFGPFIITNKHLFRRNNGTLVVTSLHGVFKVKDTTTLQQHLVDGRDMIIIRMPKDFPPFPQKLKFREPQREERICLVTTNFQTKSMSSMVSDTSCTFPSGDGIFWKHWIQTKDGQCGSPLVSTRDGFIVGIHSASNFTNTNNYFTSVPKNFMELLTNQEAQQWVSGWRLNADSVLWGGHKVFMVKPEEPFQPVKEATQL [Q59T] | 0.0683 | – | 0.0636 | – | 0.058 | 0.0264 | – | 0.0567 | – | 0.0397 | 0.0672 | 0.0772 | 0.0449 | – | 0.0497 | –
MGESLFKGPRDYNPISSSICHLTNESDGHTTSLYGIGFGPFIITNKHLFRRNNGTLVVQSVHGVFKVKDTTTLQQHLVDGRDMIIIRMPKDFPPFPQKLKFREPQREERICLVTTNFQTKSMSSMVSDTSCTFPSGDGIFWKHWIQTKDGQCGSPLVSTRDGFIVGIHSASNFTNTNNYFTSVPKNFMELLTNQEAQQWVSGWRLNADSVLWGGHKVFMVKPEEPFQPVKEATQL [L61V] | 0.0792 | 0.0618 | 0.0571 | – | 0.093 | 0.057 | – | – | – | 0.0599 | 0.0641 | 0.0757 | – | 0.0802 | – | –
MGESLFKGPRDYNPISSSICHLTNESDGHTTSLYGIGFGPFIITNKHLFRRNNGTLVVQSLCGVFKVKDTTTLQQHLVDGRDMIIIRMPKDFPPFPQKLKFREPQREERICLVTTNFQTKSMSSMVSDTSCTFPSGDGIFWKHWIQTKDGQCGSPLVSTRDGFIVGIHSASNFTNTNNYFTSVPKNFMELLTNQEAQQWVSGWRLNADSVLWGGHKVFMVKPEEPFQPVKEATQL [H62C] | 0.0666 | 0.0609 | 0.0593 | 0.0443 | 0.0559 | – | – | 0.0674 | 0.087 | 0.0587 | 0.0567 | 0.0704 | – | – | – | 0.0755
MGESLFKGPRDYNPISSSICHLTNESDGHTTSLYGIGFGPFIITNKHLFRRNNGTLVVQSLHKVFKVKDTTTLQQHLVDGRDMIIIRMPKDFPPFPQKLKFREPQREERICLVTTNFQTKSMSSMVSDTSCTFPSGDGIFWKHWIQTKDGQCGSPLVSTRDGFIVGIHSASNFTNTNNYFTSVPKNFMELLTNQEAQQWVSGWRLNADSVLWGGHKVFMVKPEEPFQPVKEATQL [G63K] | 0.0699 | – | 0.0522 | 0.0487 | – | 0.0684 | – | – | – | – | 0.058 | – | – | – | – | –
MGESLFKGPRDYNPISSSICHLTNESDGHTTSLYGIGFGPFIITNKHLFRRNNGTLVVQSLHGVFCVKDTTTLQQHLVDGRDMIIIRMPKDFPPFPQKLKFREPQREERICLVTTNFQTKSMSSMVSDTSCTFPSGDGIFWKHWIQTKDGQCGSPLVSTRDGFIVGIHSASNFTNTNNYFTSVPKNFMELLTNQEAQQWVSGWRLNADSVLWGGHKVFMVKPEEPFQPVKEATQL [K66C] | 0.0679 | – | – | 0.0723 | 0.0637 | 0.0679 | 0.0698 | – | 0.117 | 0.0607 | 0.0706 | 0.0807 | 0.065 | 0.0721 | – | –
MGESLFKGPRDYNPISSSICHLTNESDGHTTSLYGIGFGPFIITNKHLFRRNNGTLVVQSLHGVFKVKDTMTLQQHLVDGRDMIIIRMPKDFPPFPQKLKFREPQREERICLVTTNFQTKSMSSMVSDTSCTFPSGDGIFWKHWIQTKDGQCGSPLVSTRDGFIVGIHSASNFTNTNNYFTSVPKNFMELLTNQEAQQWVSGWRLNADSVLWGGHKVFMVKPEEPFQPVKEATQL [T71M] | 0.0452 | 0.0506 | 0.0665 | 0.0609 | 0.0727 | 0.0513 | – | 0.0608 | – | – | – | – | 0.0381 | – | – | 0.0611
MGESLFKGPRDYNPISSSICHLTNESDGHTTSLYGIGFGPFIITNKHLFRRNNGTLVVQSLHGVFKVKDTYTLQQHLVDGRDMIIIRMPKDFPPFPQKLKFREPQREERICLVTTNFQTKSMSSMVSDTSCTFPSGDGIFWKHWIQTKDGQCGSPLVSTRDGFIVGIHSASNFTNTNNYFTSVPKNFMELLTNQEAQQWVSGWRLNADSVLWGGHKVFMVKPEEPFQPVKEATQL [T71Y] | 0.0804 | – | 0.0622 | – | 0.0604 | – | – | 0.0536 | 0.0968 | 0.0479 | 0.0644 | – | 0.0605 | 0.078 | – | –
